Assay results as given in the supplement of paper PMC4967469.
pIC50: −log10 of the molar value. IC50 is the fitted dose that halves viability relative to control wells, and lower means more sensitive; where the fit passes the top or lowest dose, that dose stands as a limit. AUC, from the same fit, is the share of area under the viability curve across the 256-fold dose range; it is 1 without any effect and falls as sensitivity rises. For part of these data: An inferred top dose comes from the curve model; the source does not state it. For part of these data: An entry number marks a drug with two screens in the source, which often give different values.

How the values were obtained:
Assay in all cases: Viability of human cancer cell lines after 72 h of drug (GDSC screen)
AKT inhibitor VIII = compound: O=c1[nH]c2ccccc2n1C1CCN(Cc2ccc(-c3[nH]c4cc5ncnc5cc4nc3-c3ccccc3)cc2)CC1 [AKT inhibitor VIII]; details: top dose inferred
Protocol: (§1)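 Human cancer cell lines in 384-well plates, medium with 10% serum, drug for 72 h over a 256-fold dose range (nine 2-fold or five 4-fold steps up to the top dose). Adherent lines were fixed and stained with the nucleic acid dye Syto60, suspension lines read with resazurin; signal relative to control wells, capped at 0 and 100%. One two-parameter sigmoid per drug and line, fitted in a mixed model over all curves with the slope shared within a line.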

Crizotinib = compound: C[C@@H](Oc1cc(-c2cnn(C3CCNCC3)c2)cnc1N)c1c(Cl)ccc(F)c1Cl [Crizotinib]; details: top dose 2 µM
Protocol: as §1

AICAR = compound: NC(=O)c1ncn([C@@H]2O[C@H](CO)[C@@H](O)[C@H]2O)c1N [AICAR]; details: top dose 2000 µM; top dose inferred
Protocol: as §1

[1] = top dose 2.56 µM, screen: GDSC drug entry 171
[2] = top dose 10.24 µM, screen: GDSC drug entry 228

Cell Line	AUC (AKT inhibitor VIII; [1])	pIC50 (AKT inhibitor VIII; [1])	AUC (AKT inhibitor VIII; [2])	pIC50 (AKT inhibitor VIII; [2])	AUC (Crizotinib)	pIC50 (Crizotinib)	AUC (AICAR)	pIC50 (AICAR)
SIG-M5 (acute myeloid leukaemia, suspension)	0.953	< 5.59	0.53	6.12	0.98	< 5.70	–	–
MPP-89 (mesothelioma, adherent)	0.932	< 5.59	0.981	< 4.99	0.936	< 5.70	0.862	< 2.70
A101D (melanoma, adherent)	0.947	< 5.59	0.973	< 4.99	0.959	< 5.70	0.638	3.48
GOTO (neuroblastoma, adherent)	0.984	< 5.59	0.937	< 4.99	0.96	< 5.70	0.885	< 2.70
BC-1 (B-cell lymphoma, suspension)	0.941	< 5.59	0.817	5.33	0.959	< 5.70	0.881	2.81
KALS-1 (glioma, adherent)	0.928	< 5.59	0.91	< 4.99	0.956	< 5.70	–	–
697 (lymphoblastic leukaemia, suspension)	0.952	< 5.59	0.372	6.51	0.92	< 5.70	0.714	3.36
NCI-H747 (large intestine, adherent)	0.922	< 5.59	0.594	5.91	0.96	< 5.70	0.844	2.71
A3-KAW (B-cell lymphoma, suspension)	0.985	< 5.59	0.836	5.31	0.973	< 5.70	0.642	3.55
MOLP-8 (myeloma, suspension)	0.936	< 5.59	0.675	5.72	0.888	< 5.70	0.757	3.18
IMR-5 (neuroblastoma, adherent)	0.981	< 5.59	0.902	5.02	0.992	< 5.70	0.846	2.95
C2BBe1 (large intestine, adherent)	0.944	< 5.59	0.946	< 4.99	0.98	< 5.70	0.731	3.20
HCE-4 (oesophagus, adherent)	0.943	< 5.59	0.954	< 4.99	0.99	< 5.70	–	–
MONO-MAC-6 (acute myeloid leukaemia, suspension)	0.865	5.61	0.379	6.54	0.94	< 5.70	0.666	3.43
NCI-H720 (lung carcinoid, suspension)	0.992	< 5.59	0.991	< 4.99	0.959	< 5.70	0.818	3.00
NK-92MI (lymphoid neoplasm, suspension)	0.987	< 5.59	0.829	5.24	0.953	< 5.70	–	–
SCC-3 (B-cell lymphoma, suspension)	0.997	< 5.59	0.912	5.14	0.643	6.56	–	–
TE-441-T (rhabdomyosarcoma, adherent)	0.985	< 5.59	0.965	< 4.99	0.973	< 5.70	–	–
KP-N-RT-BM-1 (neuroblastoma, semi-adherent)	–	–	–	–	0.802	5.87	–	–
SKM-1 (haematopoietic neoplasm, suspension)	–	–	–	–	0.982	< 5.70	–	–
TE-10 (oesophagus, adherent)	0.926	< 5.59	0.924	< 4.99	0.959	< 5.70	–	–
TC-71 (Ewing sarcoma, adherent)	0.992	< 5.59	0.867	5.17	0.992	< 5.70	–	–
SCC-15 (head and neck, adherent)	0.976	< 5.59	0.911	< 4.99	0.98	< 5.70	–	–
ME-1 (acute myeloid leukaemia, suspension)	0.98	< 5.59	0.916	< 4.99	–	–	0.649	3.48

Cell Line	AUC (AKT inhibitor VIII; [1])	pIC50 (AKT inhibitor VIII; [1])	AUC (AKT inhibitor VIII; [2])	pIC50 (AKT inhibitor VIII; [2])	AUC (Crizotinib)	pIC50 (Crizotinib)	AUC (AICAR)	pIC50 (AICAR)
EW-11 (Ewing sarcoma, adherent)	0.894	< 5.59	0.598	5.89	–	–	0.824	2.77
HCT-15 (large intestine, adherent)	0.863	5.61	0.929	< 4.99	–	–	0.882	< 2.70
BFTC-905 (bladder, adherent)	0.937	< 5.59	0.939	< 4.99	–	–	0.866	2.86
GMS-10 (glioma, adherent)	0.97	< 5.59	0.988	< 4.99	–	–	0.771	3.12
NCI-H209 (small cell lung carcinoma, suspension)	0.979	< 5.59	0.849	5.07	–	–	0.88	< 2.70
HOP-92 (large cell lung carcinoma, adherent)	0.913	< 5.59	0.982	< 4.99	–	–	0.859	< 2.70
MS-1 (small cell lung carcinoma, suspension)	0.982	< 5.59	0.913	< 4.99	–	–	0.664	3.47
MDST8 (large intestine, adherent)	0.981	< 5.59	0.973	< 4.99	–	–	0.657	3.47
SCC-9 (head and neck, adherent)	0.847	< 5.59	0.726	5.47	–	–	0.931	< 2.70
HAL-01 (lymphoblastic leukaemia, suspension)	0.987	< 5.59	0.546	6.08	–	–	0.66	3.48
LC-1-sq (lung squamous cell carcinoma, adherent)	0.962	< 5.59	0.931	< 4.99	–	–	0.772	3.04
DOV13 (ovary, adherent)	–	–	0.971	< 4.99	–	–	0.86	< 2.70
KURAMOCHI (ovary, adherent)	0.787	5.88	0.807	5.20	–	–	0.984	< 2.70
WM1552C (melanoma, adherent)	0.907	< 5.59	0.806	5.28	–	–	0.622	3.57
RCC-JW (kidney, adherent)	–	–	0.953	< 4.99	–	–	0.857	2.77
H3255 (lung adenocarcinoma, adherent)	0.973	< 5.59	0.881	< 4.99	–	–	0.818	2.85
SNU-61 (large intestine, adherent)	–	–	0.908	< 4.99	–	–	0.921	< 2.70
WM278 (melanoma, adherent)	0.984	< 5.59	0.919	< 4.99	–	–	0.939	< 2.70
RPMI-2650 (head and neck, adherent)	0.817	5.80	0.808	5.24	–	–	0.979	< 2.70
JiyoyeP-2003 (Burkitt lymphoma, suspension)	0.974	< 5.59	0.977	< 4.99	–	–	0.858	2.88
MFH-ino (soft tissue, adherent)	0.959	< 5.59	0.965	< 4.99	–	–	0.89	< 2.70
Hs939-T (melanoma, adherent)	0.978	< 5.59	0.986	< 4.99	–	–	0.983	< 2.70
LP-1 (myeloma, suspension)	0.975	< 5.59	0.772	5.48	–	–	0.952	< 2.70
CL-11 (large intestine, adherent)	0.987	< 5.59	0.987	< 4.99	–	–	0.987	< 2.70

Cell Line	AUC (AKT inhibitor VIII; [1])	pIC50 (AKT inhibitor VIII; [1])	AUC (AKT inhibitor VIII; [2])	pIC50 (AKT inhibitor VIII; [2])	AUC (Crizotinib)	pIC50 (Crizotinib)	AUC (AICAR)	pIC50 (AICAR)
KLE (endometrium, adherent)	0.8	5.66	0.797	5.08	–	–	0.978	< 2.70
NCI-H510A (small cell lung carcinoma, semi-adherent)	0.983	< 5.59	0.928	< 4.99	–	–	0.788	3.10
SIMA (neuroblastoma, adherent)	0.984	< 5.59	0.888	< 4.99	–	–	0.936	< 2.70
8505C (thyroid, adherent)	0.962	< 5.59	0.942	< 4.99	–	–	0.887	< 2.70
SK-GT-4 (oesophagus, adherent)	–	–	0.871	< 4.99	–	–	0.899	< 2.70
EMC-BAC-1 (lung adenocarcinoma, adherent)	–	–	0.77	5.35	–	–	0.781	3.02
SKN (uterus, adherent)	0.885	< 5.59	0.881	< 4.99	–	–	0.904	< 2.70
HARA (lung squamous cell carcinoma, adherent)	0.931	< 5.59	0.722	5.51	–	–	0.691	3.32
A704 (kidney, adherent)	0.973	< 5.59	0.988	< 4.99	–	–	0.903	< 2.70
NCI-H2172 (non-small cell lung carcinoma, adherent)	0.925	< 5.59	0.872	< 4.99	–	–	0.922	< 2.70
LN-18 (glioma, adherent)	0.968	< 5.59	0.974	< 4.99	–	–	0.969	< 2.70
DMS-273 (small cell lung carcinoma, adherent)	0.849	5.68	0.956	< 4.99	–	–	0.926	< 2.70
U-118-MG (glioma, adherent)	0.927	< 5.59	0.986	< 4.99	–	–	0.796	2.96
SF295 (glioma, adherent)	0.918	< 5.59	0.888	< 4.99	–	–	0.982	< 2.70
KP-1N (pancreas, adherent)	0.927	< 5.59	0.638	5.80	–	–	0.808	2.96
UACC-257 (melanoma, adherent)	0.965	< 5.59	0.914	< 4.99	–	–	0.964	< 2.70
LU-135 (small cell lung carcinoma, suspension)	0.904	5.62	0.901	5.03	–	–	0.818	3.05
CPC-N (small cell lung carcinoma, suspension)	0.967	< 5.59	0.932	< 4.99	–	–	0.684	3.36
KYSE-510 (oesophagus, adherent)	0.866	5.78	0.941	< 4.99	–	–	0.742	3.27
SU-DHL-16 (B-cell lymphoma, suspension)	0.891	5.80	0.89	5.20	–	–	0.623	3.61
NMC-G1 (glioma, adherent)	0.954	< 5.59	0.86	< 4.99	–	–	0.924	< 2.70
NCI-H2444 (non-small cell lung carcinoma, adherent)	0.976	< 5.59	0.961	< 4.99	–	–	0.924	< 2.70
BICR22 (head and neck, adherent)	0.954	< 5.59	0.963	< 4.99	–	–	0.708	3.27
LS-411N (large intestine, adherent)	0.744	6.02	0.776	5.30	–	–	0.859	< 2.70
